# Measured values taken from the supplement of paper PMC7826260.
# Some of the results follow. Cleavage of a single-stranded DNA pool by Rep nickase domains was read by sequencing (1 h at 37 °C, 3 µM enzyme); the outer parts of the 90-letter strands are left off. Uncut reads are compared with the no-enzyme pool on a log2 scale; strong cutting gives strongly negative numbers. There is no active / inactive call. Counts are relative to all reads; values above 0 arise when much of the pool is cut.
# Experiments:
# Experiment in all cases: uncleaved DNA left, log2 of reads against the no-enzyme library (log2 ratio); higher = less cleavage (more negative = more Rep cleavage of the k-mer); sequences stand for … in CTCGTCCG…ACCGGAGA
# [1] = system: T1, Rep nickase domain of Muscovy duck circovirus
# T1 sequence (Rep 1-111, printed without the tag): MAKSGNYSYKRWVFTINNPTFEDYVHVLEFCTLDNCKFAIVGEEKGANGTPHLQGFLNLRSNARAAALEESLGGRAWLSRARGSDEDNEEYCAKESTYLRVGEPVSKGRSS
# Protocol: (§1)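 A pool of 90-nt single-stranded DNAs with seven random bases just before the constant AC of the nick site (name = the seven bases) was cut by 3 µM recombinant His6-SUMO-tagged Rep nickase domain (300 nM DNA, 50 mM HEPES pH 8.0, 50 mM NaCl, 1 mM MnCl2, 1 h, 37 °C, three replicates). Uncut DNA was amplified and sequenced.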
# [2] = system: T2, Rep nickase domain of banana bunchy top virus
# T2 sequence (Rep 1-94, printed without the tag): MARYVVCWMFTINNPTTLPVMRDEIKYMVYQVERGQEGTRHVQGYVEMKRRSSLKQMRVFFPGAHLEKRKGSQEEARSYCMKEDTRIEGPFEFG
# Protocol: as §1
# [3] = system: T3, Rep nickase domain of cabbage leaf curl virus
# T3 sequence (Rep 1-116, printed without the tag): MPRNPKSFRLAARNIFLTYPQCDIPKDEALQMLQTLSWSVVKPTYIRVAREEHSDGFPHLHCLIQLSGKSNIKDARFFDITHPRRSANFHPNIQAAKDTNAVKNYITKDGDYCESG
# Protocol: as §1
# [4] = system: T4, Rep nickase domain of chickpea chlorotic dwarf virus
# T4 sequence (Rep 1-124, printed without the tag): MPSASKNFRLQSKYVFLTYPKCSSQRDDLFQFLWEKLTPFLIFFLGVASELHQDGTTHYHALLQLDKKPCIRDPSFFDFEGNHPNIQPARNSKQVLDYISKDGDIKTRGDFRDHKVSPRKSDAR
# Protocol: as §1
# [5] = system: T5, Rep nickase domain of faba bean necrotic yellows virus
# T5 sequence (Rep 1-98, printed without the tag): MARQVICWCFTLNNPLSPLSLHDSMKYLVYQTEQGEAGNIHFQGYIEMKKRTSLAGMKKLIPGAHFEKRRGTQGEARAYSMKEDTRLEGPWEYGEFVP
# Protocol: as §1
# [6] = system: T6, Rep nickase domain of maize striate mosaic virus
# T6 sequence (Rep 1-117, printed without the tag): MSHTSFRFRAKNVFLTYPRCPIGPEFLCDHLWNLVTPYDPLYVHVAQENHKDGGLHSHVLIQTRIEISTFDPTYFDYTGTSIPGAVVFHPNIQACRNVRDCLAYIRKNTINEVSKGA
# Protocol: as §1
# [7] = system: T7, Rep nickase domain of porcine circovirus 2
# T7 sequence (Rep 2-116, printed without the tag): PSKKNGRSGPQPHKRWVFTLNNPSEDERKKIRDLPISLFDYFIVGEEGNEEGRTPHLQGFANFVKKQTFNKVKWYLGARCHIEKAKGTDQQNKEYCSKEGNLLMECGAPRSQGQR
# Protocol: as §1
# [8] = system: T8, Rep nickase domain of tomato yellow leaf curl virus
# T8 sequence (Rep 1-136, printed without the tag): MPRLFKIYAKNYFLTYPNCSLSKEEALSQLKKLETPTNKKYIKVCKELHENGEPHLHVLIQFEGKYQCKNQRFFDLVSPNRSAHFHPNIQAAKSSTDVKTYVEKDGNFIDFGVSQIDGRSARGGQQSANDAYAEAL
# Protocol: as §1
# [9] = system: T9, Rep nickase domain of wheat dwarf virus
# T9 sequence (Rep 1-137, printed without the tag): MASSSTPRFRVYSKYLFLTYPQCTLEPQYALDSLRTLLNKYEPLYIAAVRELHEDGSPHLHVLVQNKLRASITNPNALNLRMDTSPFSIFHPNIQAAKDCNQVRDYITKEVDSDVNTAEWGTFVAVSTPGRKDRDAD
# Protocol: as §1
Sequence,uncleaved DNA left (log2) [1],uncleaved DNA left (log2) [2],uncleaved DNA left (log2) [3],uncleaved DNA left (log2) [4],uncleaved DNA left (log2) [5],uncleaved DNA left (log2) [6],uncleaved DNA left (log2) [7],uncleaved DNA left (log2) [8],uncleaved DNA left (log2) [9]
GCAACTG,-0.0218,0.0301,0.0761,0.538,-0.0341,1.32,0.00504,-0.0833,0.143
CCTATTA,0.0146,-0.00238,-0.0386,-1.1,0.0194,-0.674,-0.0194,0.135,0.179
ATATGAC,0.00212,-0.0607,-0.0125,0.247,0.107,-0.39,0.142,0.0434,-0.0639
CCGCCCC,-0.0946,-0.12,0.0378,-0.0449,-0.116,-0.239,-0.262,-0.099,-0.153
AATGGTA,0.114,-0.00626,0.172,0.705,-0.0129,1.15,-0.0459,-0.0104,0.0342
GCGTGGA,0.0934,0.0664,0.157,0.533,0.0895,0.462,0.13,0.0338,0.135
GCACGTC,-0.0298,0.0248,-0.124,-0.00203,-0.0206,-0.478,-0.0859,-0.0795,-0.025
TCGGGCG,0.0635,0.0648,-0.631,-0.261,0.109,-0.817,0.107,0.123,-0.0802
GCTACTC,0.0135,0.042,0.142,-0.28,-0.0773,0.293,0.122,0.0339,0.137
TTACTTC,-0.0406,-0.0628,-0.076,-2.11,-0.00912,-0.618,-0.111,-0.016,-0.0303
GAATCAC,0.0771,0.0339,-0.306,-0.151,0.0755,0.6,0.0527,0.135,0.112
TAAGAAT,0.0505,0.0823,-1.01,-2.03,0.154,1.17,0.159,0.0782,-0.379
GTTCTTA,-0.0227,0.0759,0.246,0.759,0.0663,1.79,0.025,0.0597,0.0568
TCGCGCA,0.102,-0.01,-0.416,-0.596,-0.0168,-0.845,-0.0983,-0.0316,-0.00545
AGTATCC,0.152,0.0931,0.325,0.556,0.117,0.272,0.00264,0.202,0.185
CATCCCG,0.00162,-0.0352,-0.932,0.0234,-0.0676,-0.876,0.00999,-0.0883,-0.228
ACGTTGC,0.112,-0.0613,-0.562,-0.132,0.0611,-0.907,0.115,0.151,-0.00266
GTCGAGA,0.0343,0.115,0.807,1.55,0.0811,2.07,0.203,0.212,0.229
CATCTAT,-0.0238,-0.0316,-0.188,-1.58,-0.0948,-0.747,-0.409,-0.119,-0.0779
TTTCGCT,-0.037,0.0712,-0.383,-1.52,-0.0543,-1.19,-0.255,0.0327,-0.128
CGATAGG,0.157,0.14,-0.0438,0.595,0.15,0.375,0.0562,0.0725,-0.0441
TGCTACA,-0.115,0.2,-1.86,-2.09,0.0325,-0.12,-2.02,0.142,-1.36
TAATGTT,-3.87,-3.94,-5.45,-2.47,-3.33,-3.76,-4.22,-3.77,-4.82
ACCTCCA,-0.0303,0.0695,-0.136,-0.519,0.00885,0.335,-0.221,-0.122,0.0674
ACGACTC,-0.00596,0.0324,-0.0292,0.461,0.0279,0.701,0.0652,0.0488,0.134
AGATGCC,0.0898,0.142,-0.0625,0.296,0.0397,-0.572,0.1,0.078,0.0668
AGTTTTT,-3.09,-1.79,-0.073,-1.54,-0.52,0.111,-3.67,-0.0216,-0.0798
CTTGATG,0.046,0.168,-0.49,-0.47,0.0278,-1.03,0.068,0.033,-0.03
